Laboratory results from the supplement of paper PMC11417369.
The other results are listed elsewhere or left out.

test system: PfHDP1 homeodomain (GST-tagged); assay: gcPBM binding intensity (ln(normalized median fluorescence intensity)); higher = stronger DNA binding
Method in brief: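 Binding of GST-tagged P. falciparum DNA-binding domains, expressed in E. coli and used at about 25 μg on average, was carried out for 1 h in 1× PBS containing 1% milk, 0.2 mg/ml BSA, 0.5% salmon testes DNA and 0.03% Triton X-100. The target was an Agilent 4 × 180k array of primer-extended double-stranded 36-bp intergenic genomic probes plus negative controls, read with Alexa488 anti-GST antibody at 488 nm. Binding intensity is the highest Masliner-normalised natural-log median intensity across replicate spots of either probe orientation.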

| Sequence | gcPBM binding intensity (ln) |
| --- | --- |
| GGAAAGACAGTTCACAGTACCCAGTAACTCTACGGA [XGTACX_site2009] | 5.73 |
| TTCATGCTTATATGTGCACACACAAAAGAAAAGAAA [CACACA_site1656] | 10.8 |
| ATAATACAATTTATAACACACACACTATAATACATA [CACACA_site8338] | 6.97 |
| AAATAATAAATTATAACACACATATATATATATATA [CACACA_site4045] | 9.33 |
| TTTCACCATATAAACGTGCACACTACAAAAATATAT [CACACA_site2547] | 9.45 |
| GATTATTTTATAAGTACACACATTTATATATAATAA [CACACA_site2573] | 6.51 |
| GCATAAATTATCATAACATAAATATAAAAATATAAT [GTGCAC_negctrl_site55] | 6.31 |
| AAAAAAAAAAGACACACACACACATAAATATAAATA [CACACA_site6215] | 6.87 |
| ATTTATTTCACAAAAACATGCAGTTTGAAATTGCCA [TGCATGCA_site910] | 6.15 |
| AATTCATTATATATACGTACATATTTCTGTATAAAA [XGTACX_site6371] | 6.39 |
| TTATATAGGTCATTCATAAATACAGTTTTTAAAAAA [CACACA_negctrl_site1340] | 6.49 |
| TGTGCACATAATTAGTGTACATTTTTTATTTAGACA [XGTACX_site317] | 10.1 |
| AATGGCAAAATAGGCACACACACATATACATATATA [CACACA_site1058] | 6.85 |
| AAAAAAAAAAAAAATACACACATATAAATATAAATA [CACACA_site6189] | 6.43 |
| CTTATTGATTTAAAAAGTACATATATGTATATACAC [XGTACX_site4072] | 6.56 |
| AGATTTAAATATCATACACACTTTATATATAATACA [CACACA_site4688] | 6.49 |
| ATTAGAGAATCGTAACCCAAATGAACATACTTAAAT [GTGCAC_negctrl_site363] | 6.38 |
| AATTATATTTGAAATACACACATAAAAATCATATAG [CACACA_site3468] | 6.42 |
| TGTTATATGTTCAAATGTACAAATCATATACATGTT [XGTACX_site3192] | 6.4 |
| GTGTACAGACACAAAATATATACATATATATATATA [CACACA_negctrl_site1796] | 9.2 |
| AATATATAAACCGAACGTACATATTTTTTATACACC [XGTACX_site2121] | 6.59 |
| ATTATTTTCTCATAGAGTACAAATGTTGTTGTTGTC [XGTACX_site1062] | 6.24 |

| Sequence | gcPBM binding intensity (ln) |
| --- | --- |
| TATTTTCATAATAAAAAAAAATAATTTAAAAAATAT [CACACA_negctrl_site748] | 5.77 |
| ATGGATTATACGTGCACACATATATACCAATAAATA [CACACA_site4524] | 9.93 |
| CATTAAAATATGAGATGTACACAATATCTATTATAT [XGTACX_site4979] | 6.38 |
| AAATAATGAAACAAAGTGCATAAAAATATACATATA [GTGCAC_site9467] | 8.19 |
| ATTTAAATATCTTCTTTTTTTTTTTTTTTTGAAATT [CACACA_negctrl_site1074] | 5.93 |
| GTGTATAATATAGGATGTACAATAAAACACCGATTG [XGTACX_site7429] | 6.8 |
| GAGCGTAATCTATTTGCACACTTATTTGTTCTTAAA [CACACA_site673] | 10.3 |
| ATAAAAACATAAACAAATCAAAAAAAAAAAAAAAAA [CACACA_negctrl_site13] | 6.1 |
| TTGTTTATCAACAGCACACACAACAACAACAACAAC [CACACA_site458] | 6.75 |
| TCCTTATAAAAATACACACAAACTTTAATTAAAACA [CACACA_site3730] | 6.58 |
| CTATAATAACATAACACACACATGTATTTATAGGTG [CACACA_site6298] | 6.66 |
| ATATATATACAACAAGCATGCAGTAATTTTTTTTTT [TGCATGCA_site728] | 6.88 |
| AAAAAATATATATCACGTGGTAATATATATATATAT [XGTACX_negctrl_site252] | 8.94 |
| AAATTAAATCCGCACGCACACACACCGATTAATAAA [CACACA_site9321] | 7.21 |
| AATATATAAATAGATACACACATACATACATACATA [CACACA_site4301] | 6.71 |
| TACATCTGTATATAAACACACAACAAAAATGCTTAC [CACACA_site3814] | 6.61 |
| ACACCTATAAATTAAGTGCATTTTTTTTGATGTTAT | 9.8 |
| TGTAATACAGAAAAAAGTACTAAAAAGAAAAGGATT [XGTACX_site3176] | 6.95 |
| TATTATATTTATTTATGTACACATATACTTAAATAA [XGTACX_site1355] | 6.42 |
| TTTTTTTTTTTAATATGTACGTAAAATAAGTTTAAA [XGTACX_site6495] | 6.24 |
| ACATTCAATCTACTGTGTACATATTAAACTTTGAAA [XGTACX_site2913] | 7.15 |
| ATAATAATATATACATGTACATATATATATATATAT [XGTACX_site3455] | 9.38 |

| Sequence | gcPBM binding intensity (ln) |
| --- | --- |
| AAATATTTATAAATTGCACACAAATAATAACATTAT [CACACA_site8737] | 10.2 |
| TAACATTACTCTTAACTCTTTTGGATACCAACTTAT [XGTACX_negctrl_site82] | 6.58 |
| TATAAATAGATATATACACACTTGTGCAGAATATTA [CACACA_site7112] | 9.73 |
| AGAAGTGTAAAAGTTACACACACAAACTTGTCATTT [CACACA_site4613] | 6.37 |
| CCCAGGTGCTCGTAACGTACTTACATCAAATATTAT [XGTACX_site4617] | 7.43 |
| AGGCGTGAAATATACGTACACACATTATTTATATTT [CACACA_site2558] | 6.56 |
| AAATAAAAAGTAAAGCGTACAAATGATCAAATAATA [XGTACX_site7898] | 7.12 |
| TAATCAACAAAATCTACACACTAAAATGAAATATAA [CACACA_site3749] | 6.47 |
| ATGGAAAAATGTATATATAAAATAAATATATTATAT [CACACA_negctrl_site1712] | 6.23 |
| CATATTAAAAATACATGTACATATATATTTAATATA [XGTACX_site8580] | 6.23 |
| AACCTCAAATACACAAGTACGTATAATAAGGAACAA [XGTACX_site4304] | 6.5 |
| GTTAAAATAATATTATGTACATATATATAAAAATAT [XGTACX_site8512] | 6.56 |
| GTTTGTAAATATTTTACACACATATTTATTTATATA [CACACA_site6632] | 6.37 |
| TATAAATATGTGTTTACACACAATAATGAATTAAAA [CACACA_site6555] | 5.97 |
| AATAAAAAGATATTCTCCTTGTTCCTTTTTTTTAAA [CACACA_negctrl_site1147] | 6.5 |
| TTAATTAAATATTATACACACAAAAAAATAATTTTA [CACACA_site96] | 6.53 |
| TATATATATGTATGATGTACATATATGCATATATAT [XGTACX_site3399] | 6.67 |
| ATAGTATCTGGTAGCTGTACGAATGGTAGAGAGTAG [XGTACX_site2548] | 7.03 |
| ATATATATTCATAATACACACATTCTGTAGCATTAT [CACACA_site2067] | 7.12 |
| ATATATATATTAAAGGTGCACAAATAAATATATACA [GTGCAC_site9532] | 9.88 |
| ATATTTTTTTTCTTCACACACATGAATTATATATAA [CACACA_site3216] | 7.24 |
| ATTTTAACCAATTATTGTACTTGGTTATTCTTTTTT [XGTACX_site7453] | 6.12 |

| Sequence | gcPBM binding intensity (ln) |
| --- | --- |
| AATCTATATTGACACACACACAAAAAAAAAAAAAAA [CACACA_site6739] | 6.28 |
| AATATACACATTGTGAAATAACAAAAAAGGCAAAAA [CACACA_negctrl_site1014] | 7.23 |
| CCTATTTATATATACACACACATATATAAATAAATA [CACACA_site2991] | 6.95 |
| CATATTAGGACAAAGTGTACATATATATATATATAT [XGTACX_site1172] | 9.34 |
| AAATTATTGAAATACGCATGTGTTTTTTTTTTTTTT [TGCATGCA_site391] | 6.39 |
| AATATTACGTCTGGACGTACAAATCTTTTTCGTGTC [XGTACX_site6644] | 6.1 |
| GAAATATTTTGTTGTGCATGCGACATTAAATAAAAA [TGCATGCA_site331] | 8.6 |
| TTTTACTAGATATATACACACATTATACCTATAGAT [CACACA_site7530] | 6.62 |
| ATATAAAGGTTTATTAGTACACATTAGAATACTTTT [XGTACX_site4492] | 6.22 |
| ACATTTTTTTTTTTTTTTTTTTTCTTACATCATGCA [CACACA_negctrl_site1413] | 6.24 |
| TATACGCATATTTTTACACACATATTTTTTCATATA [CACACA_site2546] | 7.18 |
| ATTCAATAATTGTTTTTTTTCTTTTTGTTTTTGTTT [GTGCAC_negctrl_site563] | 6.34 |
| TATCTCATTTGGAATTGTACTAACAGATACTTGTTT [XGTACX_site2672] | 6.24 |
| TATATATAATATATATGTACATATGTATAATATTTA [XGTACX_site4400] | 6.35 |
| TTATGAAAAAAATACTGTACACAATATGACGAAAGT [XGTACX_site2283] | 7.21 |
| TTTTAAATAAATCATGCATGCACATATAATTATATT [TGCATGCA_site151] | 8.34 |
| GAAATATTGAAACACACACACAAACATATATATATA [CACACA_site1911] | 8.9 |
| TTTATAGTTTTAAACAAAGTAATACAAATGTATATA [CACACA_negctrl_site1716] | 6.23 |
| TATAAAAAAAATAAAATAAAATAAAATAGAAAAATA [TGCATGCA_negctrl_site109] | 6.54 |
| ATTACATTTTTGTTTTGTACATATATTTTATAAACA [XGTACX_site494] | 6.77 |
| CGTAATAATTAATGTTGTACCCACCAAAAAAATTAA [XGTACX_site8592] | 6.4 |
| TATATTTATATATATACACACATAATAAAAAATATA [CACACA_site844] | 6.41 |
